In all, about 310,000 compounds went through this assay and about 14,000 (4.5%) showed an effect of 50% or more. The effect is printed as a negative number. Some of the results follow.
The molecules below were run against human ether-à-go-go-related gene (hERG) potassium channel (human, UniProt Q12809) (assay: primary screen, population patch clamp on CHO cells stably expressing hERG).
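Further: peak tail current of the secondary pulse compared with the same well before compound.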

human ether-à-go-go-related gene (hERG) potassium channel, sequence (Q12809 whole entry, looked up): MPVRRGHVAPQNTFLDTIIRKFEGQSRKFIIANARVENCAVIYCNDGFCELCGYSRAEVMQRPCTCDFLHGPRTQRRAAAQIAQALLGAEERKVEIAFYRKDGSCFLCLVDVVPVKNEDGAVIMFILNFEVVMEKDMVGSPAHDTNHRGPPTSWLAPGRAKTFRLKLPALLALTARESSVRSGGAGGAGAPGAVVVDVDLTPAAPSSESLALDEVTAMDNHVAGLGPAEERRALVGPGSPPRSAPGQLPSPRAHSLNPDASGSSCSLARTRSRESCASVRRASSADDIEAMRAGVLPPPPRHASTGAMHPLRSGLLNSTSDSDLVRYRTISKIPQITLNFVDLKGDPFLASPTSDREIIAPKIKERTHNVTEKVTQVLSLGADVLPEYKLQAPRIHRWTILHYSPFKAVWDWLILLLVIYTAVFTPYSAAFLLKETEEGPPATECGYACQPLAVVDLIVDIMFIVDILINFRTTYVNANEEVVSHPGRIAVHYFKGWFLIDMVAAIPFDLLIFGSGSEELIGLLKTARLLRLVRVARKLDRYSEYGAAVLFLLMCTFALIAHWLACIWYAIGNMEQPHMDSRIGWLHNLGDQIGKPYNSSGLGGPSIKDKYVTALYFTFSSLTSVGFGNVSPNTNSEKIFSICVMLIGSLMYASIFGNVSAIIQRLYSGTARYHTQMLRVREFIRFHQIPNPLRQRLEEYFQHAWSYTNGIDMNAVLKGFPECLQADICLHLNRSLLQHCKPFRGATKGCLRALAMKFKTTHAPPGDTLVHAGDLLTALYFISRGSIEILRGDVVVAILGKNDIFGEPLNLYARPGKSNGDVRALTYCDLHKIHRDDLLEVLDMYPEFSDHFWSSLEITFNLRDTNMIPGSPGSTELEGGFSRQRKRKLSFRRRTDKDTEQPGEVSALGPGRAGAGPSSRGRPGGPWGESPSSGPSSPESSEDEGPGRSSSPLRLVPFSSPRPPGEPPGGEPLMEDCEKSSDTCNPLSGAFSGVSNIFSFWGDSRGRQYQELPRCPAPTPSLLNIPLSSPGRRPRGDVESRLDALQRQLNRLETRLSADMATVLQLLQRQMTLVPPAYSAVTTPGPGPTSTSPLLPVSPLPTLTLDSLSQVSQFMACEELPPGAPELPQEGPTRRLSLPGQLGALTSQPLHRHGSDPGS

Structure (SMILES) | hERG current change (%, negative = inhibition) at 10uM
CCOc1ccc2nc(NC(=O)C3CCN(c4cnccn4)CC3)sc2c1 | -8.84%
CCN(CC(=O)Nc1ccc(C#N)c(Cl)c1)CC(=O)NC(C)(C)C | -9.96%
COc1ccc(CC(=O)NNC(=O)CN(C)S(=O)(=O)c2ccc(Cl)cc2)cc1OC | 0.252%
CCOC(=O)CNC(=O)CSc1nnc(-c2ccccc2)n1Cc1ccco1 | 5.91%
COc1ccccc1C(=O)Nc1nnc(-c2ccc(F)cc2)o1 | -11.9%
CC(C)C(O)C1CCN(Cc2nc(-c3cccs3)no2)CC1 (stereo not shown) | 0.0552%
O=C(NC1=NCCS1)c1ccc(OCC2CCCO2)cc1 (stereo not shown) | 1.71%
O=C(OCc1ccccc1)c1cnc(Cl)c(Cl)c1 | -7.52%
CC1CC(C)CN(C(=O)c2cccc(N3C(=O)c4ccccc4C3=O)c2)C1 (stereo not shown) | -25.2%
N#Cc1ccc(OCc2cccc(S(=O)(=O)N3CCOCC3)c2)cc1 | -82.1%
NC(=O)CC(NC(=O)c1ccccc1)c1ccc(N2CCC(Cc3ccccc3)CC2)c([N+](=O)[O-])c1 (stereo not shown) | 4.44%
CC1CC(C(F)F)n2nc(C(=O)Nc3sc4c(c3C#N)CCC(C(C)(C)C)C4)nc2N1 (stereo not shown) | 13.2%
CC1CCCCN1C(=O)C1CCN(S(=O)(=O)c2ccc(-n3cnnn3)cc2)CC1 (stereo not shown) | -61.5%
Cc1ccc(CNC(=O)CSc2nnc(CNC(=O)c3ccccc3)o2)cc1 | 5.55%
Cn1cc(CNC(=O)C2CCCCC2)cn1 | -0.619%
O=C(CCc1nc2ccccc2[nH]c1=O)OCC(=O)N1CCc2ccccc21 | 7.45%
COc1ccc(N2CCN(S(=O)(=O)CCNC(=O)c3ccco3)CC2)cc1 | -9.43%
CC(NC(=O)c1ccc(F)cc1Cl)C1CC2CCC1C2 (stereo not shown) | 4.99%
CCc1ccc(C2CC(c3ccc(F)cc3)Nc3nc(N)nn32)cc1 (stereo not shown) | -16.2%
COc1cc2c(cc1OC)C(C)NCC2.Cl (stereo not shown) | 14.1%
COc1cc(C)c(S(=O)(=O)n2nnc3ccccc32)cc1C | 13.8%
Cc1ccc(C(=O)O/N=C(\c2ccccc2)c2cccnc2)cc1 | -18.7%

Structure (SMILES) | hERG current change (%, negative = inhibition) at 10uM
COc1ccc(C)cc1C1=CC(=O)C[C@H](c2ccc(F)cc2)C1 | -0.352%
CCc1nnc(NC(=O)C(c2ccccc2)c2ccccc2)s1 | 8.97%
CC1(OC(=O)CCc2ccccc2)C(=O)C=C2C=C(c3ccc(C#N)cc3)N(CCN3CCOCC3)C=C2C1=O (stereo not shown) | -49.9%
Cc1ccc(S(=O)(=O)NNC(=O)/C=C/c2cccc(F)c2)cc1 | -6.52%
Cc1cnc(C(=O)OCC(=O)N2CCc3ccccc32)cn1 | -0.918%
Cc1ccc(S(=O)(=O)NC(=O)c2cc(C)n(C3CC3)c2C)cc1 | 12.8%
CC1(C)CC(=O)C2=C(C1)N(Cc1ccco1)C(=O)C2(NC(=O)c1cccnc1)C(F)(F)F (stereo not shown) | -9.85%
COc1ccc(C(=O)N2CCN(c3ccc(NC(=O)c4cccs4)cc3)CC2)cc1 | -9.75%
Cn1cc(CN2CCCCC2CO)c(-c2ccc(Oc3ccccc3)cc2)n1 (stereo not shown) | -49.6%
Cc1occc1C(=O)NNC(=S)NCc1ccccc1 | 6.47%
Cc1csc(/N=C/c2ccc([N+](=O)[O-])cc2)n1 | -14.1%
CSc1sc(C(=O)O)c2c1C(=O)CCC2 | 12.8%
COc1ccc(/C=C/CN2CCN(Cc3ccccc3)C(CCO)C2)cc1 (stereo not shown) | -51.9%
CCOc1ccccc1N1CC(C(=O)Nc2ccc(S(=O)(=O)N3CCCCC3)cc2)CC1=O (stereo not shown) | -3.91%
COc1ccc(/C=N/NC(=O)C(C)Sc2ccccn2)cc1[N+](=O)[O-] (stereo not shown) | -7.8%
CCOC(=O)CCC(NC(=O)CCCCC(=O)NC(CCC(=O)OCC)C(=O)OCC)C(=O)OCC (stereo not shown) | 8.74%
COCCSc1nnc(-c2cccc(C#N)c2)n1C | -1.52%
COc1ccccc1OCCC(=O)OCC(=O)Nc1ccc(S(=O)(=O)N2CCOCC2)cc1 | -18.1%
O=C(NCCc1c[nH]c2ccccc12)c1cc(Cl)c2c(c1)OCO2 | -0.615%
CCCN1CCN(C(=S)Nc2ccc(S(N)(=O)=O)cc2)CC1 | 32.6%
CCCCn1c(=O)[nH]c(=O)c2c1nc(-c1cccc(OC)c1)n2C | -3.16%
COc1ccc(NC(=O)CN(C)S(=O)(=O)c2ccc3[nH]c(=O)oc3c2)cc1 | 0.604%

Structure (SMILES) | hERG current change (%, negative = inhibition) at 10uM
Cc1ccc(NC(=O)CSc2ccc(-c3cccnc3)nn2)cc1Cl | -17.9%
CCOC(=O)C1CCN(C(=O)CCN2C(=O)C3C4C=CC(C4)C3C2=O)CC1 (stereo not shown) | 7.09%
Cc1ccc(N(Cc2ccccc2)C(=O)c2cccc(S(=O)(=O)N3CCN(C)CC3)c2)cc1 | -52.7%
CC(=O)O[C@]1(C(C)=O)CCC2C3C=C(C)C4=CC(=O)CC[C@]4(C)C3CC[C@@]21C (stereo partly shown) | 0.054%
Cc1ccc(-c2c(C(=O)N/N=C/c3cccs3)nnn2-c2nonc2N)cc1 | 29.8%
Cc1ccc(C)c(N2CCN(C(=O)C3CCCN(c4ncnc5c4nc4n5CCCCC4)C3)CC2)c1 (stereo not shown) | -33.6%
COC(=O)C1CCN(C(c2cc(OC)c(OC)c(OC)c2)c2sc3nc(C)nn3c2O)CC1 (stereo not shown) | 5.82%
Cc1[nH]n(-c2ccc([N+](=O)[O-])cc2)c(=O)c1C=NCCN1CCN(C(=O)c2ccccc2)CC1 | -71.6%
Cc1ccc([N+](=O)[O-])cc1NC(=O)CNC1CCCCC1 | 7.17%
CS(=O)(=O)N1CCN(C(=O)c2ccccc2)C1 | 18.2%
Cc1ccnc(NC(=O)CCS(=O)(=O)c2ccccc2)c1 | 25.6%
C/C(=N/NC(=O)Cc1ccccc1)c1ccc(C)s1 | 13%
O=C(COC(=O)CN1C(=O)c2ccccc2C1=O)Nc1ccc(S(=O)(=O)N2CCCC2)cc1 | -15.5%
O=C(CN1CCN(c2ccccn2)CC1)N1c2ccccc2Sc2ccc(C(F)(F)F)cc21 | -12.4%
O=C(C1CCCCC1)N1CCCc2ccccc21 | -5.03%
Cc1ccc(O)c(C(=O)c2cnn(C(=O)Cc3csc(C)n3)c2)c1 | -1.48%
Oc1[nH]c2ccccc2c1C=Nc1ccc2c(c1)OCO2 | -0.727%
COc1ccc(/C=c2\s/c(=C\C(=O)C(C)(C)C)[nH]c2=O)cc1O | -5.93%
CCOc1cc(/C=C2\SC(=S)N(N3CCOCC3)C2=O)ccc1O | 2.31%
COc1ccc(Cl)c(NC(=O)Nc2c(C)n(-c3ccccc3)c(=O)n2C)c1 | 8.98%
Cc1nn(-c2ccccc2)c(=S)n1-c1ccccc1 | 10.3%
COc1ccccc1N1CCN(Cc2ccccc2)CC1.O=C(O)C(=O)O | -7.21%

Structure (SMILES) | hERG current change (%, negative = inhibition) at 10uM
CN(C)c1ccc(CN(C(=O)COc2ccc(F)cc2)C2CCS(=O)(=O)C2)cc1 (stereo not shown) | -16.6%
O=S1(=O)N=C(N/N=C/c2ccccn2)c2ccccc21 | 7.89%
O=C(Nc1cccc(F)c1)/C(=C\c1cccnc1)NC(=O)c1cccs1 | -2.63%
COC(=O)CN(C)C1CC(=O)N(c2ccc(Cl)cc2)C1=O (stereo not shown) | -9.9%
CC(C)(C)c1ccc(C2(C)NC(=O)NC2=O)cc1 (stereo not shown) | 13.3%
COc1ccccc1C(CNC(=O)C(CCSC)NS(=O)(=O)c1ccccc1F)N1CCCC1 (stereo not shown) | -29.4%
O=S(=O)(NCc1cccc(C(F)(F)F)c1)NCc1ccccc1F | -13.3%
CCc1ccc(NC(=O)C2CCCN2c2nn3c(=O)cc(C)nc3s2)cc1 (stereo not shown) | -39.5%
Cc1cccc(Nc2nc(-c3ccc(F)cc3)cs2)n1 | 9.58%
N/C(=N\OC(=O)COc1ccc(Br)cc1)c1ccncc1 | 5.98%
COc1cc2c(cc1OC)C(c1ccccc1Br)NC(=O)C2 (stereo not shown) | 10.4%
Nc1ccc(S(N)(=O)=O)cc1 | 5.7%
CC(=NCC1CCCO1)c1c(O)n(-c2ccc(Cl)cc2)c(=O)[nH]c1=O (stereo not shown) | -14.6%
COc1ccc(-c2nnc3n2CCCCC3)cc1OC | 13.6%
CN(C(=O)CCc1nnc(CCCCc2ccccc2)o1)C1CC(C)(C)NC(C)(C)C1 | 7.98%
COc1cccc(C2CC(=O)Nc3c2c(=O)n(C)c(=O)n3C)c1OC (stereo not shown) | 17.7%
CCOc1ccccc1NC(=O)C1CCCN(c2c(CC)c(C)nc3ncnn23)C1 (stereo not shown) | -65.1%
O=C(CNS(=O)(=O)c1ccc(F)cc1)Nc1ccccc1 | 9.25%
CC(=O)c1cccc(NC(=O)COC(=O)CCc2ccc(S(=O)(=O)N3CCOCC3)cc2)c1 | 6.05%
O=C1Cc2ccccc2C(=O)N1Cc1cccc(Cl)c1 | 11.5%
O=C(NCCc1ccc(F)cc1)C1CCCO1 (stereo not shown) | 0.132%
Cc1cc(C(=O)OCC(=O)NC(C)C)c(C)o1 | 5.59%
